# Experimental data: patent publication USRE50631E1, “ROR1 antibody immunoconjugates” (VelosBio Inc., priority 2017, dated 2025)
# “And” between values parts separate entries of the source, which are not always exact repeats. Equal entries are not always repeated. Where two headings read alike, the source gives them in different places.
# What was measured:
# A549 = assay: Cytotoxicity in vitro (CellTiter-Glo viability), A549; assay type: cell-based, human; details: A549 (NSCLC), 72 hours
# Mec-ROR = assay: Cytotoxicity in vitro (CellTiter-Glo viability), Mec-ROR; details: read-out: EC50 (nM), cytotoxicity in vitro; Mec-ROR (CLL), 72 hours
# Experimental: (§1) Cells were cultured in log phase growth and distributed into 96-well plates. Each cell line was plated at a slightly different cell density, ranging from 5×10^3 to 50×10^4 cells/well. Cells in duplicate were incubated with 3-fold serial dilution of a particular immunoconjugate (10, 3.33, 1.11, 0.37, 0.12, 0.041, 0.014, and 0.0045 μM) for 72 hours at 37° C. and 5% CO2. After treatment, cells were incubated with an equal volume of CellTiter-Glo® reagent (Promega Inc.) for 15 minutes at room temperature and viability was determined by a luminometer. Curves and EC50 values were generated in GraphPad Prism using a sigmoidal dose response non-linear regression fit.
# (§2) Cells were grown and distributed into 96-well plates as described in Example 5. Cells in duplicate were incubated with 3-fold serial dilution of a particular immunoconjugate (660, 220, 73.3, 24.4, 8.14, 2.71, 0.91, and 0.3 nM) for 72 hours at 37° C. and 5% CO2. In some experiments, cells were incubated with an immunoconjugate for 96 hours instead of 72 hours (values highlighted with “*”). After treatment, cell viability was determined as described in Example 5. Cell surface ROR1 expression was assessed by quantitative flow cytometry and ROR1 expression was characterized as MFI>30 or MFI<30 (MFI: mean fluorescent intensity).
# (§3) The MEC1 cell line, which is derived from B-chronic lymphocytic leukemia in prolymphocytoid transformation, was transfected with either an expression vector encoding human ROR1 or a control vector, and stable cell lines were created using selection media containing G418.
# Jeko-1 MCL xenograft = assay: Jeko-1 human MCL xenograft model (study 7); assay type: in vivo, mouse; details: 1 mg/kg ADC-N, ADC-P, ADC-R; 5 mg/kg ADC-A, ADC-L, ADC-M, ADC-S, ADC-T; IV Q4D
# Experimental: Jeko-1 (MCL) cells were engrafted subcutaneously into mice. When tumor size reached 100 mm^3, the mice were randomized into nine groups, 9 mice/group. The groups were vehicle control; 1 mg/kg ADC-N, ADC-P or ADC-R; or 5 mg/kg ADC-A, ADC-L, ADC-M, ADC-S, or ADC-T. The mice were dosed IV q4d.
# H460 = assay: Cytotoxicity in vitro (CellTiter-Glo viability), H460; assay type: cell-based, human; details: H460 (NSCLC)
# DOHH2 = details: read-out: EC50 (nM), cytotoxicity in vitro; DOHH2 (DLBCL), 72 hours
# Experimental: (§4) ROR1 binding by these conjugates was tested in cell culture to define the potency of various linker-cytotoxic agent combinations. Three different types of cancer cell lines were tested: B-lymphoma cell-lines TMD-8, HBL-1, and DOHH2; triple negative breast cancer cell lines HCC1187, MDA-MB-468, Bt549; and ovarian cancer cell lines A2008, TOV112D, JHOM1, and SKOvr3.
# as §1, §2
# KMS-PE = assay: Cytotoxicity in vitro (CellTiter-Glo viability), KMS-PE; assay type: cell-based, human; details: KMS-PE (KMS-12PE in Table 9.3) (MM), 72 hours
# Hep-G2 = assay type: cell-based, human; details: Hep-G2 (HCC), 72 hours; read-out: EC50 (nM), cytotoxicity in vitro
# Mec-vector = assay: Cytotoxicity in vitro (CellTiter-Glo viability), Mec-vector; details: read-out: EC50 (nM), cytotoxicity in vitro; Mec-vector (CLL), 72 hours
# Experimental: as §1, §2, §3
# Jeko-1 = assay: Cytotoxicity in vitro (CellTiter-Glo viability), Jeko-1; assay type: cell-based, human; details: Jeko-1 (MCL), read-out: EC50 (nM), cytotoxicity in vitro
# FaDu = assay type: cell-based, human; details: FaDu (HN), 72 hours; read-out: EC50 (nM), cytotoxicity in vitro
# U2OS = assay type: cell-based, human; details: U2OS (OS), 72 hours; read-out: EC50 (nM), cytotoxicity in vitro
# MDA-MB-231 = assay: Cytotoxicity in vitro (CellTiter-Glo viability), MDA-MB-231; assay type: cell-based, human; details: MDA-MB-231 (TNBC)
# MCF-7 = assay: Cytotoxicity in vitro (CellTiter-Glo viability), MCF-7; assay type: cell-based, human; details: MCF-7 (ER+/PR+/HER2− Breast), 72 hours
# [1] = target: T1, cell surface ROR1 on Jeko-1 cells (Homo sapiens, UniProt Q01973); assay: Cell surface ROR1 expression during internalization, Jeko-1 cells; assay type: cell-based; details: up to 4 hours
# T1 construct: The Jeko-1 cell line, from mantle cell lymphoma, is a suspension cell line; host or cells: Jeko-1 (human mantle cell lymphoma)
# T1 sequence (Q01973 30-937): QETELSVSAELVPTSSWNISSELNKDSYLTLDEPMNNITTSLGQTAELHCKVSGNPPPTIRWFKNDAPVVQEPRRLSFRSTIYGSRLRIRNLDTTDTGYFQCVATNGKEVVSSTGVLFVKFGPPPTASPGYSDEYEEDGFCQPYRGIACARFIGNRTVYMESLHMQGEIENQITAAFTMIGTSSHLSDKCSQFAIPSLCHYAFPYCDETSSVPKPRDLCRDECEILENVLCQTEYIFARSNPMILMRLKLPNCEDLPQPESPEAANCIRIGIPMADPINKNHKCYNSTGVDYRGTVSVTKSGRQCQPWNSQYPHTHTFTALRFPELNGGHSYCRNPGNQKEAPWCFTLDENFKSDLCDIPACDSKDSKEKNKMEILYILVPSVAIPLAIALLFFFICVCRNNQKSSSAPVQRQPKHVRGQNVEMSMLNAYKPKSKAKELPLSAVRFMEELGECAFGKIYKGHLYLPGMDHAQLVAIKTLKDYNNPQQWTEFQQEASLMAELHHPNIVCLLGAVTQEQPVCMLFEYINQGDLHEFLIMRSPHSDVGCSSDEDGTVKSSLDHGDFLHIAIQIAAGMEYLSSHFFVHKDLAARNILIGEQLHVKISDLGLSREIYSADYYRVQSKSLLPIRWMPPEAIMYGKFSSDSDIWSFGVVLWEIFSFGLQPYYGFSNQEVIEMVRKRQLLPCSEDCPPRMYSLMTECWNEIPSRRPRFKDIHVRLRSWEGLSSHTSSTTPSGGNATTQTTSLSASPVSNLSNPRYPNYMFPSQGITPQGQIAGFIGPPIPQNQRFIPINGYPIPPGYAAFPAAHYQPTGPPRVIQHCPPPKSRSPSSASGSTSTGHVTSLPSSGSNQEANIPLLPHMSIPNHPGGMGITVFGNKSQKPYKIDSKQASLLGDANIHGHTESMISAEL
# Experimental: Internalization of antibodies was measured using pulse-chase approaches that detected non-internalized, cell surface antibody at various time points (2, 5, 10, 15, 20, 30, 60, 120 and 240 minutes). In this study, in addition to measuring non-internalized cell surface antibody, the expression of ROR1 on the cell surface was quantitated either by (1) re-staining with Ab1 and a secondary antibody or (2) by using a second, labeled anti-ROR1 antibody that recognizes an epitope distinct from that of Ab1.
# For the first approach, internalization of Ab1 on Jeko-1 cells was performed as described in Example 3 (one sample was processed at each time point to quantitate antibody remaining on the cell surface). Additionally, a second sample at each time point was rapidly re-stained using saturating levels of Ab1 (30 μg/mL) while maintaining the cells on ice. Subsequently, the cells were washed and surface antibody was quantitated using the same secondary antibody used for internalization measurements.
# An alternative approach to measuring cell surface ROR1 expression in conjunction with Ab1 internalization studies was tested. Specifically, cell surface ROR1 expression was quantitated at 0, 0.5, 1, 2, and 4 hours by staining cells directly with a labeled anti-ROR1 antibody that binds an epitope distinct from that of Ab1.
# Mino = assay: Cytotoxicity in vitro (CellTiter-Glo viability), Mino; assay type: cell-based, human; details: Mino (MCL)
# MDA-MB-468 = assay: Cytotoxicity in vitro (CellTiter-Glo viability), MDA-MB-468; details: read-out: EC50 (nM), cytotoxicity in vitro, MDA-MB-468 (TNBC)
# Experimental: as §4, §1, §2
# HCC1187 = assay: Cytotoxicity in vitro (CellTiter-Glo viability), HCC1187; details: read-out: EC50 (nM), cytotoxicity in vitro; HCC1187 (TNBC), 96 hours (values marked *)
# Experimental: as §4, §1
# Cells were grown and distributed into 96-well plates as described in Example 5. […] After treatment, cell viability was determined as described in Example 5. Cell surface ROR1 expression was assessed by quantitative flow cytometry and ROR1 expression was characterized as MFI>30 or MFI<30 (MFI: mean fluorescent intensity).
# HCC1806 = assay: Cytotoxicity in vitro (CellTiter-Glo viability), HCC1806; assay type: cell-based, human; details: HCC1806 (TNBC), 96 hours (values marked *)
# H1975 = assay: Cytotoxicity in vitro (CellTiter-Glo viability), H1975; assay type: cell-based, human; details: H1975 (NSCLC), 96 hours (values marked *)
# Bx-PC3 = assay: Cytotoxicity in vitro (CellTiter-Glo viability), Bx-PC3; assay type: cell-based, human; details: Bx-PC3 (Pancreatic), 96 hours (values marked *)
molecule,measurement,setting,value
ADC-N: Ab1 conjugated via MAL-PEG4-VC-PAB-DMEA to PNU-159682 (conjugate) heavy: QVQLQESGPGLVKPSQTLSLTCTVSGYAFTAYNIHWVRQAPGQGLEWMGSFDPYDGGSSYNQKFKDRLTISKDTSKNQVVLTMTNMDPVDTATYYCARGWYYFDYWGHGTLVTVSS[skipping human IgG1 constant region] light: DIVMTQTPLSLPVTPGEPASISCRASKSISKYLAWYQQKPGQAPRLLIYSGSTLQSGIPPRFSGSGYGTDFTLTINNIESEDAAYYFCQQHDESPYTFGEGTKVEIKRTVAAPSVFIFPPSDEQLKSGTASVVCLLNNFYPREAKVQWKVDNALQSGNSQESVTEQDSKDSTYSLSSTLTLSKADYEKHKVYACEVTHQGLSSPVTKSFNRGEC,EC50,A549,30.7 nM
same,EC50,Mec-ROR,262 nM
same,"tumor growth / average tumor size (interim results, day 14)",Jeko-1 MCL xenograft,inhibition of tumor growth
same,EC50,H460; 72 hours,84.4 nM
same,EC50,DOHH2,3.8 nM
same,EC50,KMS-PE,26.8 nM
same,EC50,Hep-G2,20.8 nM
same,EC50,Mec-vector,772 nM
same,EC50,Jeko-1; 72 hours,31.7 nM and 20.3 nM
same,EC50,FaDu,27.1 nM
same,EC50,U2OS,11.2 nM
same,EC50,MDA-MB-231; 72 hours,71 nM
same,EC50,MCF-7,78.6 nM
same,cell surface ROR1 expression during treatment,[1],"ROR1 expression was maintained, or slightly increased"
same,EC50,Mino; 72 hours,7.7 nM
ADC-J: Ab1 conjugated via MAL-PEG4-VC-PAB-DMEA to Duocarmycin TM (conjugate) heavy: QVQLQESGPGLVKPSQTLSLTCTVSGYAFTAYNIHWVRQAPGQGLEWMGSFDPYDGGSSYNQKFKDRLTISKDTSKNQVVLTMTNMDPVDTATYYCARGWYYFDYWGHGTLVTVSS[skipping human IgG1 constant region] light: DIVMTQTPLSLPVTPGEPASISCRASKSISKYLAWYQQKPGQAPRLLIYSGSTLQSGIPPRFSGSGYGTDFTLTINNIESEDAAYYFCQQHDESPYTFGEGTKVEIKRTVAAPSVFIFPPSDEQLKSGTASVVCLLNNFYPREAKVQWKVDNALQSGNSQESVTEQDSKDSTYSLSSTLTLSKADYEKHKVYACEVTHQGLSSPVTKSFNRGEC,EC50,MDA-MB-468; 72 hours,146 nM
same,EC50,DOHH2,5.97 nM
same,EC50,KMS-PE,362 nM
same,EC50,Jeko-1; 72 hours,59.4 nM
same,EC50,FaDu,658 nM
same,EC50,MCF-7,268 nM
ADC-Q (conjugate) heavy: QVQLQESGPGLVKPSQTLSLTCTVSGYAFTAYNIHWVRQAPGQGLEWMGSFDPYDGGSSYNQKFKDRLTISKDTSKNQVVLTMTNMDPVDTATYYCARGWYYFDYWGHGTLVTVSS[skipping human IgG1 constant region] light: DIVMTQTPLSLPVTPGEPASISCRASKSISKYLAWYQQKPGQAPRLLIYSGSTLQSGIPPRFSGSGYGTDFTLTINNIESEDAAYYFCQQHDESPYTFGEGTKVEIKRTVAAPSVFIFPPSDEQLKSGTASVVCLLNNFYPREAKVQWKVDNALQSGNSQESVTEQDSKDSTYSLSSTLTLSKADYEKHKVYACEVTHQGLSSPVTKSFNRGEC,EC50,MDA-MB-468; 96 hours (values marked *),79.7 nM
same,EC50,HCC1187,5.3 nM
same,EC50,HCC1806,56.1 nM
same,EC50,H460; 96 hours (values marked *),180 nM
same,EC50,Jeko-1; 96 hours (values marked *),265 nM
same,EC50,H1975,26.8 nM
same,EC50,MDA-MB-231; 96 hours (values marked *),168 nM
same,EC50,Bx-PC3,45.6 nM
same,EC50,Mino; 96 hours (values marked *),139 nM
